From the RNAGym collection of RNA variant scans (doi:10.7554/elife.90254)
The source gives no read counts; variants with many changes may rest on few reads.

B1: LINE1-mini (parent)
chain: GGCAGAGCUCAACACAGCGUGGCAAAGUGGCUGUGGCUAGACUGCC

Variants of: B1
Assay: self-cleavage, relative activity (ratio to wild type); higher = more cleavage; in vitro, sequencing; the parent is a self-cleaving ribozyme

Question: Which self-cleavage does the source give for A6U A14C G27C G33A here?
Answer: Its self-cleavage is 0.13.

Question: With A6U C13A U43C C45G as the variant, how does the self-cleavage read?
Answer: Its self-cleavage is 0.37.

Question: For A6U C18A G44C C46U, which self-cleavage is on record?
Answer: Its self-cleavage is 0.04.

Question: For A6U A24C U43C, which self-cleavage is on record?
Answer: The self-cleavage was 0.07.

Question: Which self-cleavage does the source give for A6U C31A G36U here?
Answer: Its self-cleavage is 0.01.

Question: For A6U C18U C37G A41C G44U, which self-cleavage is on record?
Answer: Its self-cleavage is 0.01.

Question: For A6U C8A U9G A14C G29U C37A C46A, which self-cleavage is on record?
Answer: Its self-cleavage is 0.09.

Question: Which self-cleavage does the source give for A6U A12U U20C G27A here?
Answer: Its self-cleavage is 0.07.

Question: With A6U G7C G22U A41G as the variant, how does the self-cleavage read?
Answer: Its self-cleavage is 0.05.

Question: With A6G U9C C10A G19A as the variant, how does the self-cleavage read?
Answer: The self-cleavage was 0.02.

Question: For A6U C10A A16C G33C, which self-cleavage is on record?
Answer: Its self-cleavage is 0.01.

Question: With A6U A14U C15G G33A C37U C46G as the variant, how does the self-cleavage read?
Answer: The self-cleavage was 0.01.

Question: Which self-cleavage does the source give for A6U C10A G22U A41C here?
Answer: The self-cleavage was 0.06.

Question: With A6U C18U G36U as the variant, how does the self-cleavage read?
Answer: Its self-cleavage is 0.15.

Question: Which self-cleavage does the source give for A6U G17U C46G here?
Answer: Its self-cleavage is 0.05.

Question: With A6U A24U A25U C31U U32C U38A G40U as the variant, how does the self-cleavage read?
Answer: The self-cleavage was 0.04.

Question: Which self-cleavage does the source give for A6U C10G G19U here?
Answer: The self-cleavage was 0.12.

Question: With A6G U32G G44C as the variant, how does the self-cleavage read?
Answer: The self-cleavage was 0.02.

Question: With A6U A14C G17A U20G G44A as the variant, how does the self-cleavage read?
Answer: Its self-cleavage is 0.01.

Question: For A6U G7U A11C, which self-cleavage is on record?
Answer: The self-cleavage was 0.

Question: With A6U C10A A24C G29U as the variant, how does the self-cleavage read?
Answer: Its self-cleavage is 0.02.

Question: With A6U C18U G27A C46G as the variant, how does the self-cleavage read?
Answer: The self-cleavage was 2.08.

Question: For A6U C10G G17A C31A G33A U34A A41U, which self-cleavage is on record?
Answer: Its self-cleavage is 0.01.

Question: With A6G U38A A39C as the variant, how does the self-cleavage read?
Answer: The self-cleavage was 0.02.

Question: With A6U C18U G36U C37G as the variant, how does the self-cleavage read?
Answer: The self-cleavage was 0.03.

Question: With A6G G36U C37U as the variant, how does the self-cleavage read?
Answer: Its self-cleavage is 0.01.

Question: Which self-cleavage does the source give for A6U C18A G27A G30C here?
Answer: Its self-cleavage is 0.39.

Question: With A6G G30A C31A as the variant, how does the self-cleavage read?
Answer: Its self-cleavage is 0.05.

Question: For A6U G7U A26C, which self-cleavage is on record?
Answer: The self-cleavage was 0.04.

Question: For A6U G19A A24U G29U C31A, which self-cleavage is on record?
Answer: The self-cleavage was 0.1.

Question: Which self-cleavage does the source give for A6U G17C C31A here?
Answer: The self-cleavage was 0.37.

Question: With A6U G7U C23A A26C C42A C46A as the variant, how does the self-cleavage read?
Answer: Its self-cleavage is 0.09.

Question: Which self-cleavage does the source give for A6U A24U G30A G40C here?
Answer: Its self-cleavage is 0.1.

Question: With A6U C15U A26U G33A U34G as the variant, how does the self-cleavage read?
Answer: The self-cleavage was 0.24.

Question: Which self-cleavage does the source give for A6G G36A C37G here?
Answer: The self-cleavage was 0.03.

Question: With A6U A14U G22U C31G C37A U38C as the variant, how does the self-cleavage read?
Answer: Its self-cleavage is 0.

Question: For A6G U28A U34C, which self-cleavage is on record?
Answer: Its self-cleavage is 0.02.

Question: With A6U A14C C15A G22C as the variant, how does the self-cleavage read?
Answer: Its self-cleavage is 0.15.

Question: For A6G G30A U34C, which self-cleavage is on record?
Answer: Its self-cleavage is 0.01.

Question: Which self-cleavage does the source give for A6U A26G U28A here?
Answer: The self-cleavage was 0.37.

Question: For A6U A16C G19C U38A, which self-cleavage is on record?
Answer: Its self-cleavage is 0.16.

Question: For A6G U20G G22U C42U, which self-cleavage is on record?
Answer: Its self-cleavage is 0.08.

Question: With A6U G7C A12G as the variant, how does the self-cleavage read?
Answer: The self-cleavage was 0.11.

Question: Which self-cleavage does the source give for A6U G19A G30C U34A G44C here?
Answer: Its self-cleavage is 0.1.

Question: Which self-cleavage does the source give for A6U C13G A24U G33A here?
Answer: Its self-cleavage is 0.09.

Question: Which self-cleavage does the source give for A6U C13A A26C G30C here?
Answer: Its self-cleavage is 0.34.

Question: For A6U C10A A41G, which self-cleavage is on record?
Answer: Its self-cleavage is 0.02.

Question: For A6U A16C G17U U28A, which self-cleavage is on record?
Answer: Its self-cleavage is 0.01.

Question: Which self-cleavage does the source give for A6U C10G C23A U38G here?
Answer: The self-cleavage was 0.02.

Question: With A6U C18A A26U as the variant, how does the self-cleavage read?
Answer: The self-cleavage was 0.12.

Question: Which self-cleavage does the source give for A6U C23U C42U here?
Answer: Its self-cleavage is 0.4.

Question: For A6G U43C G44C C45U, which self-cleavage is on record?
Answer: The self-cleavage was 0.06.

Question: Which self-cleavage does the source give for A6G G30C C42U here?
Answer: The self-cleavage was 0.03.

Question: With A6U G7U A11G A12C C13G U34G as the variant, how does the self-cleavage read?
Answer: Its self-cleavage is 0.01.

Question: Which self-cleavage does the source give for A6G U9G A25U C45G here?
Answer: The self-cleavage was 0.04.

Question: Which self-cleavage does the source give for A6G U34C G40A C46U here?
Answer: Its self-cleavage is 0.

Question: With A6U G7C C18A as the variant, how does the self-cleavage read?
Answer: Its self-cleavage is 0.08.

Question: For A6U C10U A41U, which self-cleavage is on record?
Answer: The self-cleavage was 0.05.

Question: Which self-cleavage does the source give for A6U C8G C13U G27U here?
Answer: Its self-cleavage is 0.07.

Question: With A6U C10A C15G A39G as the variant, how does the self-cleavage read?
Answer: The self-cleavage was 0.01.

Question: For A6U A14U C18A C31G U34A G36U C46G, which self-cleavage is on record?
Answer: Its self-cleavage is 0.

Question: With A6U C10A U20C G44U as the variant, how does the self-cleavage read?
Answer: Its self-cleavage is 0.02.

Question: With A6U C15U G35C as the variant, how does the self-cleavage read?
Answer: The self-cleavage was 0.18.

Question: For A6U C18U C45G, which self-cleavage is on record?
Answer: Its self-cleavage is 0.08.

Question: For A6U A14U A39C C45U, which self-cleavage is on record?
Answer: The self-cleavage was 0.48.

Question: With A6U C18A C23U U28C G29C as the variant, how does the self-cleavage read?
Answer: The self-cleavage was 0.37.

Question: With A6U G17A C23U as the variant, how does the self-cleavage read?
Answer: Its self-cleavage is 0.32.

Question: Which self-cleavage does the source give for A6U G7U G19A here?
Answer: Its self-cleavage is 0.06.

Question: With A6U A12C U38C as the variant, how does the self-cleavage read?
Answer: Its self-cleavage is 0.04.

Question: For A6G U9G C10G C23U, which self-cleavage is on record?
Answer: The self-cleavage was 0.

Question: For A6U A12U A14G G33U, which self-cleavage is on record?
Answer: The self-cleavage was 0.01.

Question: For A6U C8G U9C C10U C18U U38G G40C, which self-cleavage is on record?
Answer: Its self-cleavage is 0.

Question: With A6G G29U G35U as the variant, how does the self-cleavage read?
Answer: Its self-cleavage is 0.04.

Question: For A6U A11C A26C G40U, which self-cleavage is on record?
Answer: The self-cleavage was 0.01.

Question: For A6U C23A U43C, which self-cleavage is on record?
Answer: The self-cleavage was 0.1.

Question: With A6G G44A C46A as the variant, how does the self-cleavage read?
Answer: Its self-cleavage is 0.

Question: Which self-cleavage does the source give for A6U C23A A41C here?
Answer: The self-cleavage was 0.01.

Question: With A6G U38A G40U as the variant, how does the self-cleavage read?
Answer: Its self-cleavage is 0.14.

Question: Which self-cleavage does the source give for A6U C10A G35U here?
Answer: The self-cleavage was 0.02.

Question: For A6U A12U A14G C46G, which self-cleavage is on record?
Answer: The self-cleavage was 0.01.

Question: For A6U A12U U20G C31G, which self-cleavage is on record?
Answer: Its self-cleavage is 0.05.

Question: With A6G G33U G35U as the variant, how does the self-cleavage read?
Answer: The self-cleavage was 0.02.

Question: With A6G G30U C31A G36U C42A as the variant, how does the self-cleavage read?
Answer: Its self-cleavage is 0.09.

Question: With A6U A12C A24C U34G as the variant, how does the self-cleavage read?
Answer: Its self-cleavage is 0.04.
